Sequences with one replicate were seen in a single cluster, so their values are uncertain.
Each sequence was assayed on ATP (assay: switch fluorescence ratio, 500 uM ATP over buffer (Cy3 cluster intensity, sum of 5 cycles each) (fold (ratio)); higher = stronger signal-on switching upon ATP binding; sequences stand for … in TCGTCGGCAGCGTCAGATGTGTATAAGAGACAGTTTTTTTTTTTTTTTTTTTTTTTTT…TC). Settings: aptamer strand: ATP DNA aptamer (quencher-CACCTGGGGGAGTATTGCGGAGGAAGG + anchor), 100 nM annealed; ATP concentration: 500 uM; one replicate.
Method in brief: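 Clusters carrying Cy3-labelled switching strands on a modified Illumina MiSeq flow-cell were annealed to 100 nM quencher-labelled ATP aptamer and imaged in selection buffer. They were imaged again after 15 min with 500 uM ATP at 22 °C, over five buffer/ATP cycles with NaOH stripping and re-annealing in between. For each cluster, the fluorescence ratio is the summed Cy3 intensity of the target cycles divided by that of the buffer cycles, averaged per switch-domain sequence. Clusters outside 100-1000 RFU were left out.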
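Also: ATP exposure 15 min at 22 °C before imaging.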

Sequence | switch fluorescence ratio
ATCATCCTTA | 0.977
ATCATCTTCC | 2.33
ATCATGCTCT | 0.962
ATCATTCCG | 1.03
ATCATTCGC | 1.06
ATCATTTGTA | 0.995
ATCCAAAGGG | 1.05
ATCCAATTGC | 1.1
ATCCACAGAG | 1.08
ATCCACCGGT | 1.11
ATCCACCGTT | 1.07
ATCCAGCT | 1.11
ATCCATACAC | 1.16
ATCCCAGCTT | 0.994
ATCCCCGGGG | 1.03
ATCCCCTCGA | 0.981
ATCCCGAATA | 1.08
ATCCCGGAAG | 1.01
ATCCCTGCCT | 1.16
ATCCGCTCG | 1.16
ATCCGCTCTT | 1.26
ATCCGGTAAT | 1.1
ATCCGGTAGT | 1.03
ATCCGGTCTT | 1.02
ATCCGTTTCT | 1.03
ATCCTAATTT | 0.99

Sequence | switch fluorescence ratio
ATCCTACAAT | 1.06
ATCCTACTGG | 1
ATCCTAGCTC | 1.04
ATCCTGCTCG | 1.02
ATCCTTCCGG | 1.79
ATCGAAAATA | 1.04
ATCGAAGATC | 0.984
ATCGACGTAG | 0.994
ATCGACTCTT | 1.01
ATCGACTGGG | 1.02
ATCGAGCTAT | 1.07
ATCGAGGATT | 1.02
ATCGAGGGAA | 1.01
ATCGAGGTGC | 1.07
ATCGATCCGC | 1.23
ATCGCAGCCT | 1.03
ATCGCATTCG | 0.966
ATCGCCGTCG | 1.01
ATCGCCGTTT | 0.989
ATCGCGTCAG | 1.07
ATCGCGTTG | 0.982
ATCGGAGTCT | 0.967
ATCGGATTC | 1.01
ATCGGCACCG | 1
ATCGGCTGAG | 1
ATCGGGCGCC | 1

Sequence | switch fluorescence ratio
ATCGGGTAAA | 1.03
ATCGGGTGGC | 1.01
ATCGGTAG | 1.02
ATCGGTAGCT | 1
ATCGGTATGA | 0.973
ATCGGTCGTG | 0.962
ATCGGTCTAT | 0.98
ATCGGTTGAC | 0.992
ATCGTACCAA | 1.14
ATCGTACTAG | 1.03
ATCGTATAGG | 0.966
ATCGTGAAGT | 1.03
ATCGTGAGCG | 0.953
ATCGTGCACT | 0.979
ATCGTGCTTC | 0.971
ATCGTGGCAC | 0.981
ATCGTGGTGG | 0.968
ATCGTGTAGA | 0.989
ATCGTTAGCA | 0.984
ATCGTTGAAA | 1
ATCTACGCCT | 1.22
ATCTAGAGGC | 1.01
ATCTAGCCAG | 0.983
ATCTAGCCCC | 1.01
ATCTAGTGCC | 1.06
ATCTAGTTTT | 1.01

Sequence | switch fluorescence ratio
ATCTATTGCG | 1.03
ATCTCACTA | 1.02
ATCTCCAGAT | 1.01
ATCTCCTAAG | 1.03
ATCTCGACAT | 0.994
ATCTCGATAG | 1.05
ATCTCGTACG | 0.989
ATCTGATTCA | 0.977
ATCTGGATAC | 1.47
ATCTGGT | 1
ATCTGTGATT | 0.989
ATCTGTTGTG | 0.986
ATCTTAACA | 0.954
ATCTTAGTCA | 1
ATCTTGACGG | 0.989
ATCTTGATCT | 1
ATCTTGGACA | 1.01
ATCTTTCCGG | 1.04
ATGAAAAGTA | 1
ATGAAAGCG | 1.04
ATGAAATCTC | 0.977
ATGAACAGGC | 1.02
ATGAACTCTA | 1.05
